Laboratory results: the RNAGym collection of RNA variant scans (doi:10.7554/elife.90254)
Read counts are not given, so values of variants with three or more changes are uncertain.

B1: LINE1-mini (parent)
chain: GGCAGAGCUCAACACAGCGUGGCAAAGUGGCUGUGGCUAGACUGCC

Variants of: B1
Assay: self-cleavage, relative activity (ratio to wild type); higher = more cleavage; in vitro, sequencing; the parent is a self-cleaving ribozyme

| Variant | self-cleavage |
| --- | --- |
| GGCAGGGCUCAACACAGCGUGGCAACGUGGCUGUAGCUAGACUACC [A6G A26C G35A G44A] | 0.14 |
| GGCAGGGCUCAACACAGCGUGGCAAGGUGGCUGUGGCAAGACUGCC [A6G A26G U38A] | 0.03 |
| GGCAGGGCUCAACACAGCGUGGCAAUUUGGCUGUGGCUAGACUGCC [A6G A26U G27U] | 0.02 |
| GGCAGGGCUCAACACAGCGUGGCAAUGUGGCUAUGGCUAGACUGCC [A6G A26U G33A] | 0.04 |
| GGCAGGGCUCAACACAGCGUGGCAAAGUGGCUGUGGCUCGUCUGCC [A6G A39C A41U] | 0.08 |
| GGCAGGGCUCAACACAGCGUGGCAAAGUGGCUGUGGCUAGUGGGCC [A6G A41U C42G U43G] | 0.02 |
| GGCAGGGCUCAACACAGCGUGGCAAAGUGGCUGUGGCUAGUCUGCU [A6G A41U C46U] | 0.09 |
| GGCAGGGAUCCACACAGCCUGGCAAAGUGGCCGUGGCUAGACUGCC [A6G C8A A11C G19C U32C] | 0.03 |
| GGCAGGGAUCAACACAGCGUGGCAACGUGGCUGUGGCUAGACUGCC [A6G C8A A26C] | 0.13 |
| GGCAGGGAUCAACAUAGCGUGGCAAAGUGGCUGUGGCUAGACUGCC [A6G C8A C15U] | 0.16 |
| GGCAGGGAUCAACACAGAGUGGCAAAGUGGCUGUAGCUAGACUGCC [A6G C8A C18A G35A] | 0.14 |
| GGCAGGGAUCAACACAGCGUGGCAAAGUGGCUGUGCCUAGACUGCC [A6G C8A G36C] | 0.24 |
| GGCAGGGAUCAACACAGCGUGGCAAAGUGGCUGUGGCGAGACUGCC [A6G C8A U38G] | 0.04 |
| GGCAGGGGUCAACUCAGCGUGGCAAAUUGGCUGUGGCAUGACUGAC [A6G C8G A14U G27U U38A A39U C45A] | 0.02 |
| GGCAGGGGUCAACUCAGCGGGGCAAUGUGACUGUGGCUAGAUUGCC [A6G C8G A14U U20G A26U G30A C42U] | 0.01 |
| GGCAGGGGUAAACACAGCGUGGCAAGGGGGCUGUGGUCAGACUGAC [A6G C8G C10A A26G U28G C37U U38C C45A] | 0 |
| GGCAGGGGUGAACACAGCGUCGCAAAGUGGCUGUGGCUAGACUGCC [A6G C8G C10G G21C] | 0.01 |
| GGCAGGGGUCAACAAAGCGUAGCAAAGUGGCUGUGGCUAGACUGCC [A6G C8G C15A G21A] | 0.07 |
| GGCAGGGGUCAACACAGAGUGGCAAAGUGGCUGUGGCCAGACUGCC [A6G C8G C18A U38C] | 0.04 |

| Variant | self-cleavage |
| --- | --- |
| GGCAGGGGUCAACACAGCUUGGCAAAGAGGCUGUGGCUAGACUGCU [A6G C8G G19U U28A C46U] | 0.02 |
| GGCAGGGGUCAACACAGCGUGACAAAGUGGCUGUGGCUAGACUGCC [A6G C8G G22A] | 0.07 |
| GGCAGGGGUCAACACAGCGUGGCAAAGUGGCUGUGGCCAGACUGCC [A6G C8G U38C] | 0.09 |
| GGCAGGGUUCCACACUGCGUGGCAAAGUGGCUGUCGCUAGACUGCC [A6G C8U A11C A16U G35C] | 0.01 |
| GGCAGGGUUCAACUCAACGUGGGAUAGUGGUUGUGGCUAGACUGCC [A6G C8U A14U G17A C23G A25U C31U] | 0.1 |
| GGCAGGGUUCAAGACAGCGUGGUAAAGUGGGUGUGGCUAGACUGCC [A6G C8U C13G C23U C31G] | 0.01 |
| GGCAGGGCUAACCACAGCGUGGCAAAGUGGUUGUUGCUAGACUGCC [A6G C10A A12C C31U G35U] | 0.03 |
| GGCAGGGCUAAACACCACGUGGCAAGGUGGCUGUGGCUAGACUGCC [A6G C10A A16C G17A A26G] | 0 |
| GGCAGGGCUAAAGACAGCGUGGCAAAGUGGCUGUGGCUAGACUGCC [A6G C10A C13G] | 0.02 |
| GGCAGGGCUAAACACAACGUUGCAAAGUGGCUGUGGCUACACUGCC [A6G C10A G17A G21U G40C] | 0.01 |
| GGCAGGGCUAAACACAGCGUGGCAAAUUGGCUGUGGCUAGACUGCC [A6G C10A G27U] | 0.25 |
| GGCAGGGCUGAGCACAUCGUGGCAAAGUGGCUGUGGCUAGACUGCC [A6G C10G A12G G17U] | 0.03 |
| GGCAGGGCUGAACACAGCGUGGCAAAGUGGCUGUGGUUAAACUGCC [A6G C10G C37U G40A] | 0 |
| GGCAGGGCUGAACACAGCGUGGCAAAGUCGCUGUGGCUAGACUGCC [A6G C10G G29C] | 0.03 |
| GGCAGGGCUUCACACAGCGUGGCAAAGUGGCUGUGGCUAGACUGCC [A6G C10U A11C] | 0.07 |
| GGCAGGGCUUAACACAGCGUGGCAAACUGGCUGUGGCUAGACUGCC [A6G C10U G27C] | 0.01 |
| GGCAGGGCUUAACACAGCGUGGCAAAGUGGCUCUGGCUAGACUGCC [A6G C10U G33C] | 0.03 |
| GGCAGGGCUCAAAACAUCGUGGCAAAUUGGCUGUGGCUAGACUGCC [A6G C13A G17U G27U] | 0.03 |
| GGCAGGGCUCAAGACAGCGUGGCAAAGUGGCUGUGGCUAGAUUGCC [A6G C13G C42U] | 0.01 |

| Variant | self-cleavage |
| --- | --- |
| GGCAGGGCUCAAGACAGCGUAGCAAAGUGGCUGUGGCUAGACUGCC [A6G C13G G21A] | 0.03 |
| GGCAGGGCUCAAGACAGCGUGUCAAAGUGGCUGUGGCUAGACUGCA [A6G C13G G22U C46A] | 0.01 |
| GGCAGGGCUCAAGACAGCGUGGCAAAAUGGCUGUGGCUAGACUGCC [A6G C13G G27A] | 0.02 |
| GGCAGGGCUCAAGACAGCGAGGCAAAGUCGCUGUGGCUAGACUGCU [A6G C13G U20A G29C C46U] | 0.02 |
| GGCAGGGCUCAAGACAGCGAGGCAAAGUGGCUGGGGCUAGACUGCC [A6G C13G U20A U34G] | 0.03 |
| GGCAGGGCUCAAGACAGCGUGGCAAAGUGGCCGUGGCUAGAGUUCC [A6G C13G U32C C42G G44U] | 0.01 |
| GGCAGGGCUCAAUAGAGCGUGGCAACGUGGCUGUGGCUAUACUGCC [A6G C13U C15G A26C G40U] | 0.01 |
| GGCAGGGCUCAAUACAGCGUGGGAAAGUGGCUGUGGCUAGACUGCC [A6G C13U C23G] | 0.04 |
| GGCAGGGCUCAAUACAGCGUUGCAAAUUUGCUGUGGUUAGACUGCC [A6G C13U G21U G27U G29U C37U] | 0.01 |
| GGCAGGGCUCAAUACAGCGUGCCAAAGUGGCUGUGGCUAGACUGCC [A6G C13U G22C] | 0.2 |
| GGCAGGGCUCAAUACAGCGCGGCAAAGUGGCUGUGGCUAGACUGUC [A6G C13U U20C C45U] | 0.04 |
| GGCAGGGCUCAACAAAGCGUGGCAAAGUGGCUGUGGCUAGUCCGCC [A6G C15A A41U U43C] | 0.02 |
| GGCAGGGCUCAACAAAUCGUGGCAAAGUGGCUGUGGCUCGACUGCC [A6G C15A G17U A39C] | 0.05 |
| GGCAGGGCUCAACAAAGCGUAGCAAAGUGGCUGUGGCUAGACUGCC [A6G C15A G21A] | 0.07 |
| GGCAGGGCUCAACAAAGCGUGCCAAAGUGUCUGUGGCUAGACUGCC [A6G C15A G22C G30U] | 0.05 |
| GGCAGGGCUCAACAGACCGUGGCAAAGUGGUUGUGGCUAGACUGCC [A6G C15G G17C C31U] | 0.02 |
| GGCAGGGCUCAACAGAGCGUGCCAAAGAGGCUGUGGCUAUACUGCC [A6G C15G G22C U28A G40U] | 0.2 |
| GGCAGGGCUCAACAGAGCGUGGCAAAGUGGCUGUCGAUAGACUGCC [A6G C15G G35C C37A] | 0.01 |
